{"source": "PubChem BioAssay AID504832", "about": "(National Center for Advancing Translational Sciences (NCATS), 2011)", "note": "Several values for one entry are separate records, joined by “and”; a condition that tells them apart may be missing. Identical values can stand only once. The whole screen tested about 310,000 compounds, of which about 18,000 (5.8%) were called active. The shares of active, inactive and inconclusive entries below differ from those in the screen. Calls come from the whole dose curve; as a rule, active = well fitted inhibition curve with a large enough effect; inconclusive = small, poorly fitted or top-dose-only effect, or another doubt; inactive = no such curve, though single readings can be large or run the other way. Where the call is inconclusive, the potency comes from a doubtful curve fit. Potency is the fitted concentration of half-maximal effect; tags give direction and shape of the fitted curve."}
{"assay": "Primary qHTS for delayed death inhibitors of the malarial parasite plastid, 48 hour incubation", "conditions": "P. falciparum luciferase growth in erythrocytes; series mostly up to 28.7 µM", "in_short": "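A one-generation exposure of luciferase-tagged malaria parasites in RPMI 1640/Albumax erythrocyte culture, 37 C and 5% CO2. Inhibition is inferred from decreased luminescence after adding detection reagent.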"}
{"smiles": "Cn1cnnc1SCC(=O)Nc1ncc(C(F)(F)F)cc1Cl", "Potency": "inactive"}
{"smiles": "CCc1ccc(-c2cc(C(F)(F)F)n3nc(C(=O)Nc4c(C)nn(Cc5ccccc5C)c4C)cc3n2)s1", "Potency": "inconclusive: 11.7 µM [inhibitor, single point]"}
{"smiles": "O=C(Nc1ccc(Cl)c(Cl)c1)Nc1ccc(Br)cc1F", "Potency": "inconclusive: 13.1 µM [inhibitor, single point]"}
{"smiles": "Cn1c(=O)c(C(=O)COC(=O)c2cc(-c3ccco3)nc3ccccc23)c(N)n(CC2CC2)c1=O", "Potency": "inconclusive: 9.28 µM [inhibitor, partial curve]"}
{"smiles": "O=C(Cc1ccccc1)OCCN1CCOCC1", "Potency": "inactive"}
{"smiles": "Cc1ccc(NC(=S)NCCN(C2CCCCC2)C2CCCC2)cc1", "Potency": "inconclusive: 6.57 µM [inhibitor, partial curve, poor fit]"}
{"smiles": "CCCCN1C(=O)NC2NC(=O)NC21", "note": "(stereo not given)", "Potency": "inactive"}
{"smiles": "O=P(O)(Oc1ccccc1)OC(c1ccccc1)C(F)(F)C(F)(F)F", "note": "(stereo not given)", "Potency": "inconclusive: 16.5 µM [inhibitor, single point]"}
{"smiles": "Cc1ccc(SCC(=O)NN=C2CCN(C)CC2)cc1", "Potency": "inconclusive: 0.37 µM [inhibitor, partial curve, poor fit]"}
{"smiles": "Clc1ccc(-c2cccs2)nn1", "Potency": "inconclusive: 0.0029 µM [inhibitor, full curve, poor fit]"}
{"smiles": "CC(C)(c1ccccc1)c1ccc(OCC(O)CN2CCCC2)cc1", "note": "(stereo not given)", "Potency": "active: 13.1 µM"}
{"smiles": "CCOC(=O)C1(Cc2ccc(Cl)cc2)CCN(CCCn2cccn2)CC1", "Potency": "inactive"}
{"smiles": "Cc1ccc(C(=O)c2c3ccc([N+](=O)[O-])cc3[n+]([O-])n2CCCC(N)=O)cc1", "Potency": "inconclusive: 2.62 µM [inhibitor, single point]"}
{"smiles": "COc1cc(/C=C2\\SC(=Nc3ccc(O)cc3)NC2=O)cc(OC)c1OC", "Potency": "inconclusive: 13.1 µM [inhibitor, partial curve]"}
{"smiles": "O=C(NCc1ccc(F)cc1)C1CCN(S(=O)(=O)c2ccc(Cl)cc2)CC1", "Potency": "active: 3.7 µM"}
{"smiles": "CN(C)c1ccc(S(=O)(=O)N2CCCCC2)cc1NC(=O)COc1ccccc1F", "Potency": "inconclusive: 18.5 µM [inhibitor, single point]"}
{"smiles": "c1ccc2c(N3CCCCCC3)nc(-c3ccncc3)nc2c1", "Potency": "inconclusive: 11.7 µM [inhibitor, single point]"}
{"smiles": "Cc1onc(-c2ccccc2)c1C(=O)OCC(=O)Nc1ccc(Cl)cc1", "Potency": "inconclusive: 18.5 µM [inhibitor, single point]"}
{"smiles": "CN(C)S(=O)(=O)c1cc(C(=O)NCc2ccccc2)c(Cl)cc1Cl", "Potency": "inactive"}
{"smiles": "CC(=O)OC1(Cc2ccccc2)CN2CCC1c1ccccc12", "note": "(stereo not given)", "Potency": "inactive"}
{"smiles": "C=C1c2c(Cl)ccc(O)c2C(O)=C2C(=O)[C@]3(O)C(O)=C(C(N)=O)C(=O)[C@@H](N(C)C)[C@@H]3[C@@H](O)C12", "note": "(stereo not given in full)", "Potency": "active: 2.33 µM"}
{"smiles": "CC(C)c1ccccc1OCC(=O)NC1CCCc2ccccc21", "note": "(stereo not given)", "Potency": "inconclusive: 13.1 µM [inhibitor, single point]"}
{"smiles": "Cc1cccc(N(Cc2ccccc2)C(=O)c2cc(S(=O)(=O)N3CCOCC3)ccc2F)c1", "Potency": "active: 11.7 µM"}
{"smiles": "COC(=O)/C=C/C(=O)N1CCN(c2cccc(Cl)c2)CC1", "Potency": "inconclusive: 9.28 µM [inhibitor, single point]"}
{"smiles": "CCCC(=O)c1c(NC(C)C)cc(C)oc1=O", "Potency": "inconclusive: 0.131 µM [inhibitor, full curve, poor fit]"}
{"smiles": "O=C(O[C@H]1CN2CCC1CC2)N1CCc2ccccc2[C@@H]1c1ccccc1", "Potency": "inconclusive: 16.9 µM [inhibitor, single point]"}
{"smiles": "Cc1ccc(C)c2[nH]c(=O)c(C(c3nnnn3C(C)(C)C)N3CC=C(c4ccc(F)cc4)CC3)cc12", "note": "(stereo not given)", "Potency": "active: 2.08 µM"}
{"smiles": "CCN1C(=O)[C@H]2[C@@H](c3ccc(-c4ccc(F)cc4)c(OC)c3)N[C@@](CC(C)C)(C(=O)OC)[C@H]2C1=O", "Potency": "active: 2.33 µM"}
{"smiles": "O=C(NCCN1CCCC1)C1(S(=O)(=O)c2ccc(Cl)cc2)CC1", "Potency": "inconclusive: 10.4 µM [inhibitor, partial curve]"}
{"smiles": "NC(=O)N/N=C/c1ccc([N+](=O)[O-])o1", "Potency": "active: 15.1 µM and active: 11.7 µM"}
{"smiles": "COc1ccc(-c2noc(-c3ccccc3C(=O)NCC3CCCO3)n2)cc1", "note": "(stereo not given)", "Potency": "inactive"}
{"smiles": "Cc1nc2ccc(NC(=O)NC(=O)c3c(Cl)cccc3Cl)cc2o1", "Potency": "inconclusive: 10.4 µM [inhibitor, single point]"}
{"smiles": "O=S(=O)(NC1CCN(S(=O)(=O)c2ccc3c(c2)OCCO3)CC1)c1c(F)cccc1F", "Potency": "inconclusive: 14.7 µM [inhibitor, single point]"}
{"smiles": "CC(=O)Oc1c(C)cc(O)c2ccccc12", "Potency": "inconclusive: 11.7 µM [inhibitor, partial curve]"}
{"smiles": "CCCCCSc1nnc(C)c(=O)[nH]1", "Potency": "inconclusive: 0.0522 µM [inhibitor, full curve, poor fit]"}
{"smiles": "COc1cccc(-n2c(CN3CCN(c4cccc(C)c4)C(C)C3)nc3ccc([N+](=O)[O-])cc3c2=O)c1", "note": "(stereo not given)", "Potency": "inconclusive: 3.7 µM [inhibitor, single point]"}
{"smiles": "O=C(NCc1cc([N+](=O)[O-])ccc1O)c1cccnc1Sc1ccccc1", "Potency": "inconclusive: 13.1 µM [inhibitor, partial curve, poor fit]"}
{"smiles": "O=C(COc1coc(CN2CCc3ccccc3C2)cc1=O)Nc1ccccc1F", "Potency": "inconclusive: 11.7 µM [inhibitor, single point]"}
{"smiles": "CCN1C(=O)[C@H]2[C@@H](c3ccc(-c4ccccc4)cc3)N[C@@](C)(C(=O)OC)[C@H]2C1=O", "Potency": "active: 9.28 µM"}
{"smiles": "O=C(CSc1nc2nn(-c3ccccc3)c(=O)c-2c2n1CCCCC2)NCCc1ccccc1", "Potency": "inconclusive: 11.7 µM [inhibitor, single point]"}
{"smiles": "CCOC(=O)c1ccc(NC(=O)N2CC(C)OC(C)C2)cc1", "note": "(stereo not given)", "Potency": "inconclusive: 4.15 µM [inhibitor, single point] and inconclusive: 4.65 µM [inhibitor, partial curve, poor fit]"}
{"smiles": "O=C(Nc1cccc([N+](=O)[O-])c1)Nc1ccc2c(c1)OCCO2", "Potency": "inactive"}
{"smiles": "NC(=S)N/N=C/c1ccc(Br)o1", "Potency": "inconclusive: 0.0029 µM [inhibitor, full curve, poor fit]"}
{"smiles": "NC(Cc1ccc(Oc2ccc(O)cc2)cc1)C(=O)O", "note": "(stereo not given)", "Potency": "inactive"}
{"smiles": "O=C(c1cc2ccccc2o1)N1CCCC1", "Potency": "inactive"}
{"smiles": "CCOC(=O)C1=C(C)N(c2ccc(OC)cc2)C(=O)/C1=C\\c1cccs1", "Potency": "inactive"}
{"smiles": "O=C(CCl)Nc1cccc(CP(=O)(c2ccccc2)c2ccccc2)c1", "Potency": "active: 10.4 µM"}
{"smiles": "COc1ccc(Nc2cc(C)nc(NCc3ccccc3)n2)cc1", "Potency": "active: 0.465 µM"}
{"smiles": "CCC(C)(C)c1nnc(NC(=O)C2CCN(C(=O)c3ccco3)CC2)s1", "Potency": "inconclusive: 18.5 µM [inhibitor, single point]"}
{"smiles": "Cc1cc(CNC(=O)c2cc(COc3c(F)cccc3F)on2)nn1C", "Potency": "inactive"}
{"smiles": "CCOC(=O)COc1coc(CN2CCN(c3ccc(F)cc3)CC2)cc1=O", "Potency": "inactive"}
{"smiles": "Clc1cccc(-c2cc3nc4c(c(N5CCOCC5)n3n2)CCCC4)c1", "Potency": "inconclusive: 11.7 µM [inhibitor, partial curve, poor fit]"}
{"smiles": "COC(=O)c1cc(C(=O)Nc2cccc(C)n2)cc([N+](=O)[O-])c1", "Potency": "inactive"}
{"smiles": "COc1ccccc1CNC(=O)C(C)n1nc(C)c2c(C)n(-c3ccccc3)nc2c1=O", "note": "(stereo not given)", "Potency": "inconclusive: 10.4 µM [inhibitor, single point]"}
{"smiles": "O=C(/C(=C/c1cccnc1)n1ccnc1)c1ccc(Cl)cc1Cl", "Potency": "inconclusive: 10.4 µM [inhibitor, partial curve]"}
{"smiles": "CS(=O)(=O)N1CCC(C(=O)NNC(=O)Nc2ccc(F)c(Cl)c2)CC1", "Potency": "inconclusive: 10.4 µM [inhibitor, partial curve, poor fit]"}
{"smiles": "c1ccc(-c2nc(-c3nccc4ccccc34)oc2-c2ccccc2)cc1", "Potency": "inactive"}
{"smiles": "Cc1ccc(CNC(=O)CSc2nc(=O)n3cccc(C)c3n2)cc1", "Potency": "inactive"}
{"smiles": "Cc1ccc2nc(/C(C#N)=C/c3cn[nH]c3-c3ccc(F)cc3)[nH]c2c1", "Potency": "inconclusive: 10.4 µM [inhibitor, single point]"}
{"smiles": "CCC1C(=O)N=C(SCC(=O)Nc2cccc3ccccc23)NC1=O", "note": "(stereo not given)", "Potency": "inconclusive: 18.5 µM [inhibitor, single point]"}
{"smiles": "CN(C(=O)COC(=O)CCC(=O)c1ccccc1)c1c(N)n(Cc2ccccc2)c(=O)[nH]c1=O", "Potency": "inactive"}
{"smiles": "O=C(CN1CCN(c2ncccn2)CC1)N(Cc1ccccc1)c1ccc(F)cc1", "Potency": "inactive"}
{"smiles": "CCOC(=O)c1c(C)[nH]c(C(=O)COC(=O)c2c(CC)noc2C)c1C", "Potency": "inconclusive: 14.7 µM [inhibitor, single point]"}
{"smiles": "CCN(CC)CC(=O)Nc1ccc2c(c1)Nc1ccccc1CC2", "Potency": "inconclusive: 13.1 µM [inhibitor, partial curve, poor fit]"}
{"smiles": "COc1ccccc1C(=O)NCCC(=O)N1CCN(S(=O)(=O)c2ccc(Cl)cc2)CC1", "Potency": "inconclusive: 10.4 µM [inhibitor, single point]"}
{"smiles": "O=C(O)c1ccc(N=NN2CCCCCC2)cc1", "Potency": "inactive"}
{"smiles": "COC(=O)c1ccc(-n2nc(C(F)(F)F)c3c2-c2ccoc2CC3)cc1", "Potency": "inconclusive: 14.7 µM [inhibitor, single point]"}
{"smiles": "O=c1c2c([nH]c3ccccc13)CCC2", "Potency": "inconclusive: 2.62 µM [inhibitor, partial curve, poor fit]"}
{"smiles": "Cc1c(OC(C)C(=O)NCc2ccccn2)ccc2c3c(c(=O)oc12)CCCC3", "note": "(stereo not given)", "Potency": "inconclusive: 2.08 µM [inhibitor, full curve]"}
{"smiles": "CCOC(=O)c1ccccc1NC(=O)c1cn(-c2ccc(C)c(C)c2)c(=O)c2ccccc12", "Potency": "inconclusive: 13.1 µM [inhibitor, single point]"}
